88 sequences from the supplement of paper PMC11417369 can be followed below.

The list shows a part of the results.

The subject of the assay is PfSIP2 AP2 domain 1 (GST-tagged). Put plainly: gcPBM binding intensity (ln(normalized median fluorescence intensity)); higher = stronger DNA binding. Put shortly: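 GST-tagged P. falciparum DNA-binding domains, expressed in E. coli (about 25 μg on average), were applied for 1 h to an Agilent 4 × 180k array of primer-extended double-stranded 36-bp intergenic genomic probes plus negative controls. The binding buffer was 1× PBS with 1% milk, 0.2 mg/ml BSA, 0.5% salmon testes DNA and 0.03% Triton X-100. Bound protein was detected with Alexa488 anti-GST antibody and scanned at 488 nm. Binding intensity is the highest Masliner-normalised natural-log median intensity across replicate spots of either probe orientation.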
As for “TTTTTTTAAAATATGAGTACATAATATTGTAAAAAT [XGTACX_site6536]”, the “gcPBM binding intensity (ln)” value was determined as 6.82.
For the sequence “ATACATATACACATTTGTACATATTCCTTTTTATCG [XGTACX_site1731]”, the “gcPBM binding intensity (ln)” value worked out at 7.02.
Consider “TTATTTAAAATGAAAAGTACATATTACTTTCTCACA [XGTACX_site5043]”, for which the “gcPBM binding intensity (ln)” value is 7.01.
The same measure for “TCTTGTTTTAATTTTTATATTATTATTTAGATATAT [CACACA_negctrl_site921]”: 7.2; for “TACTAAATGATCATATGTACACATGTTTACTTTTTA [XGTACX_site1253]”: 7.01.
Consider “AATATATATATATATATATATATTTCAATATATAAA [XGTACX_negctrl_site187]”, for which the “gcPBM binding intensity (ln)” value is 7.79.
The same measure for “ATGATAATTATTAAGGGTACATAAAAATATATCTAT [XGTACX_site8969]”: 7.05.
For “TATAATTATTTTTTCACACATATGTATTTATATATA [CACACA_site4205]”, the “gcPBM binding intensity (ln)” value worked out at 7.09.
The same measure for “ATTATTTAACATGTGGACACAAAAATTTAAGGGTTC [CACACA_negctrl_site1269]”: 7.25; for “AGATATATATATAGGTGTACTGGAATGAAATTGTTT [XGTACX_site8200]”: 6.94; for “AATATATTAAATATTACACACATACATTTAGTGGAA [CACACA_site8609]”: 6.92.
In the case of “TACTAAGAAAAGAACTGTACATAGAATATACCCAAG [XGTACX_site4757]”, the “gcPBM binding intensity (ln)” value is 6.71.
As for “AATATCAAAAAAAAAAAAAAAAAAAAAAAAAAAAAA [CACACA_negctrl_site288]”, the “gcPBM binding intensity (ln)” value is 6.99.
As for “TAAATATAATCTAAATGTACATGACATAATTTTTTT [XGTACX_site2856]”, the “gcPBM binding intensity (ln)” value was determined as 6.86.
“TAAAATATTTTTTGTAGTACCTTAATATTTTTGAAG [XGTACX_site3048]”: the “gcPBM binding intensity (ln)” value stood at 6.92.
For the sequence “GTGTAATATGAAATGTGTACACACGCACACACAAAA [XGTACX_site6180]”, the “gcPBM binding intensity (ln)” value came to 7.6.
In the case of AATAAATACTAAATGGTGCAAAATTTTTTAACACTG, the “gcPBM binding intensity (ln)” value came out at 10.7.
As for “TTTCAAAAATGAGTTACACACACACCGATATATATA [CACACA_site5263]”, the “gcPBM binding intensity (ln)” value came out at 7.49.
The same measure for “AGCCACCATATTTACACACACATCAAAATGTATTAA [CACACA_site1816]”: 7.13; for “TATATATATTATAGATGTACTTTCATATATATGTTT [XGTACX_site8189]”: 7.51; for “ATGTATATTTTTAAAAGTACAGAATTTTCATATGAA [XGTACX_site5754]”: 6.85.
“ATATACAATACAAAAACACACACAAAAAAAGAAAAG [CACACA_site8668]”: the “gcPBM binding intensity (ln)” value came out at 7.07.
In the case of “ATAGTATCTGGTAGCTGTACGAGTCGTAGAGTCTAA [XGTACX_site2539]”, the “gcPBM binding intensity (ln)” value came to 6.7.
As for “TATTTATTTATGTACGCACACAGTTGATATTAATTC [CACACA_site2754]”, the “gcPBM binding intensity (ln)” value was found to be 7.41.
Take “ATATATATATATATATGTACATAATTAATAGCATAT [XGTACX_site1428]”: the “gcPBM binding intensity (ln)” value was 9.51.
Take “GAAAAAGATGCGCATACACACAGATGAATAACAAAA [CACACA_site1628]”: the “gcPBM binding intensity (ln)” value is 7.12.
The same measure for “ATCATATTTATGTTGGTGCATTATACATAAAGTTTA [GTGCAC_site9574]”: 10.2; for “AAAATAAGAAAACAAATGCACACCATTTATATAGAT [CACACA_site1055]”: 7.08; for “TATATAATAAGAAAATATGTGCGTAGTTCAGCAAAA [XGTACX_negctrl_site304]”: 7.1.
Take “AATTGGATAAACCAATTGGATTATAATACGATATAT [CACACA_negctrl_site275]”: the “gcPBM binding intensity (ln)” value turned out to be 6.9.
For GAAAAATATATTCTGGTGCATGAATAAAATCATAAA, the “gcPBM binding intensity (ln)” value came to 10.2.
With “TATTCATCACTTTTTTGTACTTATGGATAAAATTTT [XGTACX_site3349]”, the “gcPBM binding intensity (ln)” value was determined as 7.19.
The same measure for “AAAGGATATATCCAGAGTACATATTCTGTGTAATAC [XGTACX_site1547]”: 6.92; for “CACAAAAAAAATTATACACACACACCCATATATATA [CACACA_site8255]”: 7.6.
The same measure for “ATAATTGTTTCTTTCTCCTTTTTATTTCATTTTAAA [CACACA_negctrl_site964]”: 7.05; for “TGTCTTATTTATATTACACACTATATGAAAAAATAT [CACACA_site6807]”: 7.25.
“AAAATAAATAAATACACACACACGAATATTTATATA [CACACA_site6892]”: the “gcPBM binding intensity (ln)” value was found to be 6.93.
In the case of “ATTATAAAAATATCGTGTACATATTTTTTAAAATAA [XGTACX_site5072]”, the “gcPBM binding intensity (ln)” value was 7.12.
The same measure for “AAAAAAAAAAAAAAAAGTACACATCATTTTATGAAA [XGTACX_site1402]”: 7.84; for “ATTATTTCAATTTTTTTTGTTTTTAAAAAAAAAAAT [CACACA_negctrl_site1387]”: 6.84.
“GAAAACAAAATGGTAACACACAAATGTAAATAGTAT [CACACA_site2113]”: the “gcPBM binding intensity (ln)” value was found to be 6.98.
As for “AAAAAAAAAAAAAAAAGTACTCTATAAGTAACATTT [XGTACX_site6973]”, the “gcPBM binding intensity (ln)” value came to 7.59.
In the case of “ATTTTTTTGTTATTGTTGAAAAGATGGTTCTTTTTT [CACACA_negctrl_site1346]”, the “gcPBM binding intensity (ln)” value amounted to 6.95.
For “AATTTCTTATTTTGTACACACAATAAATATTCACAT [CACACA_site1612]”, the “gcPBM binding intensity (ln)” value was determined as 7.07.
As for “TAGTAGTTATCATTAACATGCAATAATATTATTTAA [TGCATGCA_site178]”, the “gcPBM binding intensity (ln)” value came out at 6.71.
In the case of “AAGTTAGGATAGATCCAATAATTTTTAGTTTCTCTT [GTGCAC_negctrl_site272]”, the “gcPBM binding intensity (ln)” value came out at 6.55.
As to “ATGAACATATTTTTTTGTACTTATGAAAATATGTTA [XGTACX_site5996]”, the “gcPBM binding intensity (ln)” value was 6.86.
The same measure for “TAATGTTACACAAACTTTTCATTCTTTTTAATAAAT [TGCATGCA_negctrl_site331]”: 6.68; for “ATATAATTATAAAATAAACACACATATATATTTATA [CACACA_site8039]”: 7.05.
The same measure for “TTATTTATTTATAATTGTACATTGCAAATGAATTTA [XGTACX_site4083]”: 6.72.
As to “ATATATATATATATATGTACATAGAGAAGTATCTTT [XGTACX_site4737]”, the “gcPBM binding intensity (ln)” value was 9.91.
On to “AACATTTTAAATTATACACACATTTTGAATATATAT [CACACA_site3470]”, for which the “gcPBM binding intensity (ln)” value is 7.2.
The same measure for “TGTTGTTGTAATTATTGTACGTTATGCGATTATTAT [XGTACX_site7005]”: 7.2.
As to “TATACACCCAGACACACACACACACCCAAAAAAAAA [CACACA_site497]”, the “gcPBM binding intensity (ln)” value was found to be 7.26.
Turning to “AAAATAAACTATAGTACACACTTATTATTATGAAAT [CACACA_site5488]”, the “gcPBM binding intensity (ln)” value was 7.06.
For the sequence “GATATATTTTATATATGTACATACAAGGGTAAATAT [XGTACX_site1202]”, the “gcPBM binding intensity (ln)” value stood at 7.16.
Turning to “TCAATTAGACGAAAATGTACATATGTATATATTTTT [XGTACX_site5027]”, the “gcPBM binding intensity (ln)” value was 6.84.
Regarding “AAAATATGTAGCTACACACACATAAACAAAATAACA [CACACA_site1007]”, the “gcPBM binding intensity (ln)” value was determined as 7.01.
Turning to “ATTTTATAAAGGAAGTGTACTAATAAATTCAAATTA [XGTACX_site3922]”, the “gcPBM binding intensity (ln)” value is 6.91.
Regarding “AAGAAAAAATATACTTCACACATTTAATATATAATT [CACACA_site4919]”, the “gcPBM binding intensity (ln)” value was determined as 6.79.
“AAAAAAAAAAAAAAATGTACAAATATATACATATAT [XGTACX_site935]”: the “gcPBM binding intensity (ln)” value was determined as 7.22.
The same measure for “AAAAAAGAATTGTGCACACACAAAAAATGTTCATAA [CACACA_site1103]”: 8.77.
The same measure for “TCGATGTTGGTAGGATGTACGGTACCGGTAGTATTT [XGTACX_site4214]”: 6.82; for “TTTTTTTTTTTTATTTGTACACATTTTCATATTTTT [XGTACX_site4406]”: 7.07.
Regarding “TATATTTACTCTAAGTGTACATATTATTTTATAATA [XGTACX_site2046]”, the “gcPBM binding intensity (ln)” value was found to be 7.
Consider “TATATATATATGTGCACACATAAAGATATTATTTTT [CACACA_site3733]”, for which the “gcPBM binding intensity (ln)” value was 9.51.
In the case of “TAACACATAAATAAATATATACATATATATAAAATA [CACACA_negctrl_site375]”, the “gcPBM binding intensity (ln)” value stood at 6.85.
Turning to “AATATATCATAATGATGTACAAGTAAAACCGTTACA [XGTACX_site4280]”, the “gcPBM binding intensity (ln)” value amounted to 6.9.
Regarding “ATTCTTTTAAACAGTACACACACACCGATATATATA [CACACA_site8213]”, the “gcPBM binding intensity (ln)” value was found to be 7.66.
Consider “AATATATATATATATACATGCATATATTCCTTCCTT [TGCATGCA_site890]”, for which the “gcPBM binding intensity (ln)” value worked out at 7.06.
Take “TTTGTGCCTATAAATTAACACACAGAAATATATAGA [CACACA_site8175]”: the “gcPBM binding intensity (ln)” value turned out to be 7.06.
For “AAAAACTTATATGATACACACGATAAACAAAATAAA [CACACA_site1039]”, the “gcPBM binding intensity (ln)” value turned out to be 7.04.
With “CAAAAATACATTATAATAATATGCACAATAATAAAT [XGTACX_negctrl_site263]”, the “gcPBM binding intensity (ln)” value was 9.12.
With “GATCTATATATCATTACACACTTGAATTACTTAAAA [CACACA_site21]”, the “gcPBM binding intensity (ln)” value was 7.1.
The same measure for “ATAAAATAAAATTGGTGTACTTTTGATAAAATAAAA [XGTACX_site4264]”: 7.25; for “TATTTATTTATAAATGCATGTCGCTCTTTTTATTAC [TGCATGCA_site626]”: 6.98; for “ATATATATATATATGTGTACATATAAGATAGAAGAA [XGTACX_site3198]”: 9.38.
As to “TTATGCATAAAAGGTGGTACTCCGTATATACATTCT [XGTACX_site4354]”, the “gcPBM binding intensity (ln)” value stood at 7.27.
Regarding “AACTATAAAAGTTTTACACACTGTTTTTAAATAATG [CACACA_site7686]”, the “gcPBM binding intensity (ln)” value was 6.8.
The same measure for “ATTATTATAGATATAACACACATAATTACATACTTA [CACACA_site6837]”: 7.1; for “AAAAGTAAAAAAAGCACACACGAAAAAAAATAAAAA [CACACA_site5264]”: 6.8; for “TCCATAAATAATTGTAGTACACATACTATGTGACAT [XGTACX_site7268]”: 7.31.
For the sequence “TATTAAAAAAAAAAATAAAAAAATAAAATAAAATAA [CACACA_negctrl_site580]”, the “gcPBM binding intensity (ln)” value was determined as 6.68.
The same measure for “ATAATATTTTAGAGCAGTACACTTTTATATTTATTG [XGTACX_site5728]”: 6.9; for “AGAGGAAAAATAAAAGGAAAAAAGAAAATAATATTG [CACACA_negctrl_site852]”: 6.64; for “ATATATTACAATATATGTACTTAATTTGCTTAAATA [XGTACX_site7912]”: 6.95.
Take “AAAATAAATATTACATGTACATATATATATATATAT [XGTACX_site8492]”: the “gcPBM binding intensity (ln)” value was 9.26.
For the sequence “TAAAACAGAATGAGGAGTACAAAAAGAAGAAAAGGG [XGTACX_site1246]”, the “gcPBM binding intensity (ln)” value turned out to be 7.48.
